Source: PubChem BioAssay AID938 (National Center for Advancing Translational Sciences (NCATS), 2007)
Among all 73,000 compounds or so, about 1,800 (2.5%) were called active. Inconclusive means that the source gave no clear call. Such entries were picked first, then a sample of the others. Calls come from the whole dose curve; as a rule, active = well fitted activation curve with a large enough effect; inconclusive = small, poorly fitted or top-dose-only effect; inactive = no such curve, though single readings can be large or run the other way. Potencies of inconclusive entries are left out as doubtful fits.

Test: qHTS Assay for Agonists of the Thyroid Stimulating Hormone Receptor: Activators of Intracellular cAMP Concentrations in Parental HEK 293; note: nearly all actives have a fitted effect of over 55% in size; for activation: % of control where 0% means no effect
Conditions: parental HEK293 CNG cAMP sensor, membrane potential fluorescence; activation: at 57.1 µM (top of the series) unless noted
In short: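 Counterscreen for endogenous-receptor signalling: CNG-channel HEK 293 cells report cAMP rise by membrane depolarization. After 60 min dye equilibration with 100 uM RO 20-1724, compounds incubated 30 min before bottom-read fluorescence at 590 nm.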
Potency is the fitted concentration of half-maximal effect; tags give direction and shape of the fitted curve.

| SMILES | Potency | activation |
| --- | --- | --- |
| CC1CCCN(CCC(=O)c2ccc(Br)cc2)C1 (stereo unspecified) | inactive |  |
| COc1ccc2c3c([nH]c2c1)[C@H]1C[C@@H]2[C@@H](C[C@@H](O)[C@H](OC)[C@H]2C(=O)O)CN1CC3 | inconclusive [activator, partial curve] |  |
| O=C(Nc1nc(-c2ccc(S(=O)(=O)N3CCCC3)cc2)cs1)C1COc2ccccc2O1 (stereo unspecified) | inconclusive [activator, single point] |  |
| CS(=O)(=O)Nc1cccc(-c2nc(NCc3ccccc3)c3ccccc3n2)c1 | active: 25.1 µM |  |
| CCOc1cc(C(=O)N2CCN(c3ccccc3)CC2)cc(OCC)c1OCC | inconclusive [activator, partial curve] |  |
| CCOC(=O)Cc1csc(NC(=O)c2c(-c3c(F)cccc3Cl)noc2C)n1 | inconclusive [activator, single point] |  |
| Cc1c(NC(=O)Nc2ccccc2Cl)sc(=S)n1C | inconclusive [activator, single point] |  |
| Cc1sc2ncnc(Oc3ccc(-n4ccnc4)cc3)c2c1C | inconclusive [activator, single point] |  |
| Cc1cc(C2C(=O)CC(=O)CC2c2ccccc2)on1 (stereo unspecified) | inconclusive [activator, single point] |  |
| CCOC(=O)c1sc2cccc(F)c2c1N | inconclusive [activator, single point] |  |
| Cc1ccc(-c2nnc3sc(C4COc5ccccc5O4)nn23)cc1 (stereo unspecified) | active: 25.1 µM |  |
| O=C1c2ccccc2N[C@H](c2cc(Cl)cc(Cl)c2O)N1CCc1ccccn1 |  | inactive: 15.3% [at 11.4 µM] |
| Cc1ccc2c(c1)nnn2C1CCN(S(=O)(=O)c2ccc(C(=O)N3C(C)CCCC3C)cc2)CC1 (stereo unspecified) | inconclusive [activator, single point] |  |
| COc1ccc(Cl)cc1S(=O)(=O)N1CCN(c2ccc(F)cc2)CC1 | inconclusive [activator, single point] |  |
| CCOC(=O)c1c2c(n3ccccc13)C(=O)c1ccccc1C2=O |  | inactive: -9.2% [at 11.4 µM] |
| Clc1ccc(-c2nnc3sc(-c4ccco4)nn23)c(Cl)c1 | inactive |  |
| CCC1CCCCN1Cc1nc2c(c(=O)n(C)c(=O)n2C)n1Cc1ccccc1 (stereo unspecified) | inactive |  |
| C=C(N(C)C)[C@]1(C)C[C@H]1[C@H](NC(=O)CNC(=O)OCc1ccccc1)c1ccccc1 | active: 15.8 µM |  |
| COc1ccc(NC(=O)CN2CCN(c3ccc(F)cc3)CC2)cc1Cl | inconclusive [activator, single point] |  |
| CCCCNc1cc(C)nc(NCc2ccccc2)n1 | active: 6.31 µM |  |
| COCCn1nnnc1C(c1ccccc1)N1CCN(Cc2ccc3c(c2)OCO3)CC1 (stereo unspecified) | inconclusive [activator, single point] |  |
| CCCn1c(CN(C)Cc2ccccc2)nc2c1c(=O)n(C)c(=O)n2C | inconclusive [activator, full curve] |  |
| O=C(c1ccco1)N1CCC[C@@]2(CCN(c3ncccn3)C2)C1 | inactive |  |
| CC(=O)c1cccc(NC(=O)Nc2cc3sccc3n2C)c1 | inactive |  |

| SMILES | Potency | activation |
| --- | --- | --- |
| CCCCOC(=O)n1c(SCC(=O)N(C)C)nc2ccccc21 | inconclusive [activator, single point] |  |
| CC(C)COC(=O)C1C(=O)CC(C)(O)C(C(=O)OCC(C)C)C1c1cccnc1 (stereo unspecified) | inconclusive [activator, partial curve] |  |
| CCC[C@@H]1C[C@@]1(CCC)[C@@H](NP(=O)(c1ccccc1)c1ccccc1)c1ccc(C(=O)OC)cc1 | active: 12.6 µM |  |
| CC1CCN(c2nc3c(c(=O)[nH]c(=O)n3C)n2Cc2ccccc2Cl)CC1 | inconclusive [activator, partial curve] |  |
| Cc1cc(S(=O)(=O)N2CCOCC2)ccc1F | inconclusive [activator, single point] |  |
| O=C(O)c1oc(C(=O)O)c(C(=O)O)c1C(=O)O |  | inactive: 6.72% [at 11.4 µM] |
| CCCc1[nH]nc2c1C(c1ccc(Br)s1)C(C#N)=C(N)O2 (stereo unspecified) | inconclusive [activator, single point] |  |
| CCn1c2ccccc2c2nc3ccccc3nc21 | inconclusive [activator, single point] |  |
| COCCn1nnnc1C(c1ccc(Cl)cc1)N1CCSCC1 (stereo unspecified) | active: 15.8 µM |  |
| Cc1ccc2nc(NC(=O)Cn3cc4c(n3)CCCCC4)sc2c1 | inconclusive [activator, single point] |  |
| COC(=O)[C@@]1(Cc2ccc(F)cc2)[C@H]2c3cc(C(=O)N4CCCC4)n(Cc4ccc(C)c(F)c4F)c3C[C@H]2CN1C(=O)c1ccccc1 | inconclusive [activator, full curve] |  |
| Cn1cccc1C(=O)Nc1nc(-c2ccccn2)cs1 | inconclusive [activator, single point] |  |
| Cn1c(=N)c(S(=O)(=O)c2ccccc2)cc2c(=O)n3ccccc3nc21 | inactive |  |
| Nc1ccccc1NC(=O)c1ccccc1 | inactive |  |
| CCOc1ccc(-c2[nH]nc3c2C(c2ccc4c(c2)OCO4)C(C#N)=C(N)O3)cc1OC (stereo unspecified) | inactive |  |
| Cc1cc(C)c(S(=O)(=O)Nc2ccccc2C(F)(F)F)c(C)c1 | active: 39.8 µM |  |
| O=C(Cc1ccc(F)cc1)Nc1c2c(nn1-c1cccc(Cl)c1)CS(=O)C2 (stereo unspecified) | inconclusive [activator, partial curve] |  |
| OCC1OC(C#Cc2ccccc2)C=CC1OCc1ccccc1 (stereo unspecified) | inconclusive [activator, single point] |  |
| CN(C)S(=O)(=O)c1ccc(C(=O)OCc2ccc(C#N)cc2)cc1 | inconclusive [activator, single point] |  |
| CCC(C)NC(=O)c1cnc2n(c1=O)CCS2 (stereo unspecified) | inconclusive [activator, single point] |  |
| COc1cc(-c2nnc(SCC(=O)c3ccc(C)cc3)o2)cc(OC)c1OC | inconclusive [activator, single point] |  |
| COc1ccc(C(=O)N2CCN(C(=O)c3cc(OC)c(OC)c(OC)c3)CC2)cc1 | inactive |  |
| CC(O)c1c(OCc2ccccc2)ncnc1OCc1ccccc1 (stereo unspecified) | inconclusive [activator, partial curve] |  |
| CC(=O)N1CCC2(CCCN(c3ccccn3)C2)CC1 | inactive |  |

| SMILES | Potency | activation |
| --- | --- | --- |
| COCCn1c(SCC(=O)c2ccc(CNC(C)=O)o2)nc2ccccc2c1=O | inconclusive [activator, single point] |  |
| CC(C)(C)c1ccccc1NC(=O)c1cccnc1 | inactive |  |
| COc1ccccc1-c1nnc2sc(-c3cc4ccccc4o3)nn12 | active: 25.1 µM |  |
| Cc1ccccc1-c1nc(CN2CCC(C(=O)N3CCC(C(N)=O)CC3)CC2)c(C)o1 |  | inactive: -7.58% [at 11.4 µM] |
| CN(Cc1ccccc1)c1ncnc2c1cnn2-c1ccccc1 | inactive |  |
| FC(F)(F)c1ccccc1-c1ccc2ncnc(N3CCOCC3)c2c1 | inconclusive [activator, partial curve] |  |
| COc1ccc(-n2c(SC3CCOC3=O)nc3ccccc32)cc1 (stereo unspecified) | inconclusive [activator, partial curve] |  |
| CCCCOC(=O)C(C#N)c1nc2ccccc2nc1N1CCOCC1 (stereo unspecified) | inactive |  |
| COC(=O)[C@@]1(Cc2ccc(F)cc2)[C@H]2c3cc(C(=O)N4CCCC4)n(CC4CC4)c3C[C@H]2CN1C(=O)c1ccccc1 | active: 3.98 µM |  |
| COc1cc(CNC2CCC(C)C2)cc(OC)c1 (stereo unspecified) | inconclusive [activator, single point] |  |
| O=C(C1CCCCC1)N1CCC(c2nc3c(nnn3Cc3ccccc3Cl)c(=O)[nH]2)CC1 | inactive |  |
| Cc1ccc(S(=O)(=O)Cn2nnnc2C(C(C)C)N2CCc3ccccc3C2)cc1 (stereo unspecified) | inconclusive [activator, single point] |  |
| O=c1ccc(S(=O)(=O)N2CCC(Cc3ccccc3)CC2)c[nH]1 | inconclusive [activator, single point] |  |
| O=S(=O)(c1cccs1)N1CCc2ccccc2C1 | inconclusive [activator, single point] |  |
| COC(=O)COc1ccc(S(=O)(=O)N2CCN(c3ccccc3F)CC2)cc1 | inconclusive [activator, full curve, poor fit] |  |
| CC1C(=O)C(C)C(c2ccc3c(c2)OCO3)NC1c1ccc2c(c1)OCO2 (stereo unspecified) | inconclusive [activator, partial curve] |  |
| Brc1cccc(-c2nnc(-c3ccccc3)o2)c1 | inconclusive [activator, full curve, poor fit] |  |
| COc1cc(-c2nc(N)n[nH]2)cc(OC)c1OC | inconclusive [activator, full curve] |  |
| Cc1ccc(CN2C3=NCCCN3c3ccccc32)cc1 | inconclusive [activator, full curve] |  |
| Cc1cccc(-n2c(SCC(=O)Nc3ccc4c(c3)OCO4)nnc2-c2ccoc2C)c1 | inconclusive [activator, partial curve] |  |
| Cc1c(C(=O)OCC(=O)c2c(N)n(CC(C)C)c(=O)n(C)c2=O)oc2ccccc12 | inconclusive [activator, partial curve] |  |
| CC(=O)NCCNc1cc(-c2ccccc2C(F)(F)F)ncn1 | inconclusive [activator, single point] |  |
| O=C(Nc1ccc2c(c1)OCO2)N1CCN(C/C=C/c2ccccc2)CC1 | inconclusive [activator, full curve] |  |
